Results on 1 molecule are retold here after the supplement of paper PMC8728848.

Holding throughout (assay): glycan array binding signal (z-score within array); higher = stronger binding
Holding throughout (settings): glycan notation: IUPAC condensed, linker removed

Experiment [1] deals with Gal(b1-4)GlcNAc(b1-2)Man(a1-6)[GlcNAc(b1-2)Man(a1-3)]Man(b1-4)GlcNAc(b1-4)GlcNAc. The method, boiled down: (§1)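 The binding signal is a Z-score computed within each array and averaged over linkers. Arrays of the same protein sequence at different concentrations or buffers were also averaged together. Data originate from 3228 arrays in the Consortium for Functional Glycomics database, kept only where the protein sequence was available.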

In experiment [2] the target is Gal(b1-4)GlcNAc(b1-2)Man(a1-6)[Man(a1-3)]Man(b1-4)GlcNAc(b1-4)GlcNAc. The method, boiled down: as §1
Experiment [3] has as its target Gal(b1-4)GlcNAc(b1-2)[Gal(b1-4)GlcNAc(b1-4)]Man(a1-3)[Gal(b1-4)GlcNAc(b1-2)Man(a1-6)]Man(b1-4)GlcNAc(b1-4)GlcNAc. The essentials:
as §1

Experiment [4] addresses Gal(b1-4)GlcNAc(b1-2)[Gal(b1-4)GlcNAc(b1-4)]Man(a1-3)[Gal(b1-4)GlcNAc(b1-2)[Gal(b1-4)GlcNAc(b1-6)]Man(a1-6)]Man(b1-4)GlcNAc(b1-4)GlcNAc. The method, boiled down: as §1
The target of experiment [5] is Gal(b1-4)GlcNAc(b1-2)[Gal(b1-4)GlcNAc(b1-4)]Man(a1-3)[GlcNAc(b1-4)][Gal(b1-4)GlcNAc(b1-2)Man(a1-6)]Man(b1-4)GlcNAc(b1-4)GlcNAc. The essentials:
as §1

The target of experiment [6] is Gal(b1-4)GlcNAc(b1-2)[Gal(b1-4)GlcNAc(b1-4)]Man(a1-3)[GlcNAc(b1-4)][Gal(b1-4)GlcNAc(b1-2)[Gal(b1-4)GlcNAc(b1-6)]Man(a1-6)]Man(b1-4)GlcNAc(b1-4)GlcNAc. The essentials: as §1
The target in experiment [7] is Gal(b1-4)GlcNAc(b1-2)[Gal(b1-4)GlcNAc(b1-6)]Man(a1-6)[Gal(b1-4)GlcNAc(b1-2)Man(a1-3)]Man(b1-4)GlcNAc(b1-4)GlcNAc. The essentials:
as §1

For experiment [8], the target named is Gal(b1-4)GlcNAc(b1-2)[Gal(b1-4)GlcNAc(b1-6)]Man(a1-6)[Gal(b1-4)GlcNAc(b1-2)Man(a1-3)]Man(b1-4)GlcNAc(b1-4)[Fuc(a1-6)]GlcNAc. The method, boiled down: as §1
Experiment [9] concerns the target Gal(b1-4)GlcNAc(b1-2)[Gal(b1-4)GlcNAc(b1-6)]Man(a1-6)[GlcNAc(b1-4)][Gal(b1-4)GlcNAc(b1-2)Man(a1-3)]Man(b1-4)GlcNAc(b1-4)GlcNAc. The essentials: as §1
The target of experiment [10] is Gal(b1-4)GlcNAc(b1-2)[Gal(b1-4)GlcNAc(b1-6)]Man(a1-6)[GlcNAc(b1-4)][Gal(b1-4)GlcNAc(b1-2)[Gal(b1-4)GlcNAc(b1-4)]Man(a1-3)]Man(b1-4)GlcNAc(b1-4)[Fuc(a1-6)]GlcNAc. The method, boiled down: as §1
The target of experiment [11] is Gal(b1-4)GlcNAc(b1-3)Gal(b1-3)GalNAc. The method, boiled down: as §1
For experiment [12], the target named is Gal(b1-4)GlcNAc(b1-3)Gal(b1-3)GlcNAc. The essentials: as §1
Experiment [13] has as its target Gal(b1-4)GlcNAc(b1-3)Gal(b1-4)Glc. The essentials:
as §1

Experiment [14] has as its target Gal(b1-4)GlcNAc(b1-3)Gal(b1-4)GlcNAc. The essentials:
as §1

Experiment [15] has as its target Gal(b1-4)GlcNAc(b1-3)Gal(b1-4)GlcNAc(b1-2)Man(a1-3)[Gal(b1-4)GlcNAc(b1-3)Gal(b1-4)GlcNAc(b1-2)Man(a1-6)]Man(b1-4)GlcNAc(b1-4)GlcNAc. The method, boiled down: as §1
For experiment [16], the target named is Gal(b1-4)GlcNAc(b1-3)Gal(b1-4)GlcNAc(b1-2)Man(a1-3)[Gal(b1-4)GlcNAc(b1-3)Gal(b1-4)GlcNAc(b1-2)Man(a1-6)]Man(b1-4)GlcNAc(b1-4)[Fuc(a1-6)]GlcNAc. The method, boiled down: as §1
Experiment [17] concerns the target Gal(b1-4)GlcNAc(b1-3)Gal(b1-4)GlcNAc(b1-2)[Gal(b1-4)GlcNAc(b1-3)Gal(b1-4)GlcNAc(b1-6)]Man(a1-6)[Gal(b1-4)GlcNAc(b1-3)Gal(b1-4)GlcNAc(b1-2)Man(a1-3)]Man(b1-4)GlcNAc(b1-4)GlcNAc. The essentials: as §1
Experiment [18] has as its target Gal(b1-4)GlcNAc(b1-3)Gal(b1-4)GlcNAc(b1-2)[Gal(b1-4)GlcNAc(b1-3)Gal(b1-4)GlcNAc(b1-6)]Man(a1-6)[Gal(b1-4)GlcNAc(b1-3)Gal(b1-4)GlcNAc(b1-2)Man(a1-3)]Man(b1-4)GlcNAc(b1-4)[Fuc(a1-6)]GlcNAc. The method, boiled down:
as §1

The other results are listed elsewhere or left out.

B1: AT1G73650(15) (Arabidopsis thaliana), F4HRY1 (protein)
chain: MGTVLDSHFLALTAIVTVIYQFIFFVITALFKFDQVTDFAGSTNFVILAVLTLVLKASWHFRQIVLTLLVVVWGLRLGIFLLMETRILQWGEDRRFDEQRGNIVRLIIFWTLQAVWVWTVSLPLTLVNASDGGGSLKPADVIGWTMETWVFGFLIEAAADQQKLSFKNSPENRGKWCDVGVWKYSRHPNYFGEMETLLWWGIFVAASPVLEGAEYLVIFGPLFLTLLLLFVSGIPLLEASADKKHGNSGAYRSYKKTTSPLILFPRGVYGNLPGWFKTVFLFEFPFYSRNLPQEGRLQNSKEKEVKDD
B1: the “glycan array binding signal (z-score)” value was -0.554 in [1]; -0.586 in experiment [2]; -0.835 in experiment [3]; -0.568 in experiment [4]; -0.154 in [5]; -0.701 in [6]. Further, the “glycan array binding signal (z-score)” value in experiment [7] was 1.98; in experiment [8], 1.65; in experiment [9], -0.494; in experiment [10], -0.179; in [11], 0.81; in [12], -0.512. Further, the “glycan array binding signal (z-score)” value in experiment [13] is 1.93; in experiment [14], 1.92; in [15], -0.01; in experiment [16], -0.555; in [17], -0.267; in [18] it was 0.506.
